Screen size: about 310,000 compounds; about 2,200 (0.71%) showed an effect of 50% or more. Effects have a minus sign here. The list shows a part of the results.
Target: human ether-à-go-go-related gene (hERG) potassium channel (human, UniProt Q12809)
Assay: primary screen, population patch clamp on CHO cells stably expressing hERG

human ether-à-go-go-related gene (hERG) potassium channel, sequence (Q12809 whole entry, looked up): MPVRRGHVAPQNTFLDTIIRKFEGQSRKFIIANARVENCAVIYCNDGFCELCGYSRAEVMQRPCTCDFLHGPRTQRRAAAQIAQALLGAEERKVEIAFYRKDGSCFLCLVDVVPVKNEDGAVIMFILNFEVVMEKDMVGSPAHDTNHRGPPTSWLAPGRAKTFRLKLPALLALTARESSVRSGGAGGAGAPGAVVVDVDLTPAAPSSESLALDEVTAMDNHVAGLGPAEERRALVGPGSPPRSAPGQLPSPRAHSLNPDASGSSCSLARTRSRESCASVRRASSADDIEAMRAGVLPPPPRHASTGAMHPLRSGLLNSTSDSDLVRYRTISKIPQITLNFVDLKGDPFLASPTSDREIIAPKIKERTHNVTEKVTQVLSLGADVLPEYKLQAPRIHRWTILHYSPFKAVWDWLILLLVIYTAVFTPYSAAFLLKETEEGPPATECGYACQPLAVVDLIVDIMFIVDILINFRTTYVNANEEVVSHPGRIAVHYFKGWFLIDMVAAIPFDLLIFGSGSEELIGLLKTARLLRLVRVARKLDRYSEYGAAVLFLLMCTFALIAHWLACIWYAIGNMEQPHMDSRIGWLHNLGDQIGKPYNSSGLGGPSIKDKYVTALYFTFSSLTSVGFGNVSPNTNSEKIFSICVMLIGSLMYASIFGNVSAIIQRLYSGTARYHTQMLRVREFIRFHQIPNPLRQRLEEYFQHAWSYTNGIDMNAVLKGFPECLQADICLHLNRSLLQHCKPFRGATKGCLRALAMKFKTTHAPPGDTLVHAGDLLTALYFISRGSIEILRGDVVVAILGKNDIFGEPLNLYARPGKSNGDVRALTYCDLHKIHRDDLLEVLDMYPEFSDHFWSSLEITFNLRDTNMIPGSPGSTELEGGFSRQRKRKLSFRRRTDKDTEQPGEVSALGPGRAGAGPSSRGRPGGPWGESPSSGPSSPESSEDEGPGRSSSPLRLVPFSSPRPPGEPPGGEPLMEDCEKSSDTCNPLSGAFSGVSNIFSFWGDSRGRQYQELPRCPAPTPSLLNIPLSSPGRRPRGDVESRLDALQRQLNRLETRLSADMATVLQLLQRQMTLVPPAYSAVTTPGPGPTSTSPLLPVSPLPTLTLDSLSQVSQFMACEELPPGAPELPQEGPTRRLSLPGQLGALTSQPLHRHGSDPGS

In order of falling “hERG current change (%, negative = inhibition) at 1uM” value:
1. O=C(Nc1ccc(NC(=S)NC(=O)c2cccs2)cc1)c1ccco1  22.5%
2. O=C(CSc1nnc(-c2ccco2)o1)NC1CCCCC1  19.6%
3. O=C(CCCN1C(=O)C(c2ccccc2)Oc2cccnc21)Nc1ccccc1Cl (centres unmarked)  19.2%
4. CC1(C)CC(=O)C(N=Nc2c(Cl)cc(Cl)cc2Cl)=C(O)C1  16.3%
5. O=C(CSc1nnc(NC(=O)c2ccccc2F)s1)NC1CCCC1  16.2%
6. Cc1nn(-c2ccccc2)c(Cl)c1C(=O)NCCN(C)C  16.2%
7. O=C(c1cnsn1)N1CCC(CO)(Cc2cccc(F)c2)CC1  16.1%
8. Fc1ccc(CSc2nnc(-c3ccco3)o2)cc1  15.7%
9. O=C(OC1CCOC1=O)c1cc(-c2ccc(Cl)cc2)nc2ccccc12 (centres unmarked)  15%
10. O=C(O)CCCN1C(=O)C2C3CC(C2C1=O)C1C(c2ccccc2)c2sc(=O)n(-c4ccccc4)c2SC31 (centres unmarked)  14.7%
11. O=C(Cn1ccnc1)c1ccc(O)c(O)c1  14.5%
12. COC(=O)c1cc(Br)c(=O)n(-c2cc(C)on2)c1  14.4%
13. O=C1c2ccccc2C(=O)N1CCc1nc2ccccc2c(=O)n1-c1ccccn1  14.1%
14. O=C(CCC(=O)N1CCN(Cc2ccc(F)cc2)CC1)Nc1nnc(C2CCCCC2)s1  14.1%
15. CC(CCc1ccccc1)NC(=O)COC(=O)c1cc(NS(=O)(=O)c2ccc(Cl)c([N+](=O)[O-])c2)ccc1O (centres unmarked)  14.1%
16. O=C(CCC(=O)Nc1ccccc1)NNC(=O)c1cccs1  13.5%
17. Cc1ccc(OCCCN2C(=O)C(=O)c3cccc(C)c32)cc1  13.2%
18. COc1ccccc1CCC(=O)N(CCC1=CCCCC1)c1c(N)n(Cc2ccccc2)c(=O)[nH]c1=O  13%
19. COCCCn1c(=O)cc(C)[nH]c1=S  12.6%
20. COc1ccc(NC(=O)CCNC(=O)Cn2cnc3sc4c(c3c2=O)CCCC4)c(OC)c1  12.6%
21. COc1cc(C(=O)NC2CC(C)(C)CC(C)(C)C2)ccc1OC1CCN(C(C)=O)CC1  12.2%
22. CC1CCCCC1NC(=O)COC(=O)CCC(=O)c1cccs1 (centres unmarked)  12.1%
23. Cc1cccc(NCc2nc3ccccc3n2Cc2ccccc2)c1  12%
24. O=C(O)C1C2c3ccccc3C(c3ccccc32)C1C(=O)Nc1ccccc1 (centres unmarked)  11.8%
25. C=CCNC(=S)N/N=C/c1ccc(OCc2ccccc2)cc1  11.8%
26. O=C(NC1CCCCC1)[C@H](O)[C@@H](O)C(=O)NC1CCCCC1  11.1%
27. Nc1cc(N2CCCCCC2)c2nonc2c1[N+](=O)[O-]  11%
28. CCOC(=O)c1cnc(Nc2ccccc2)nc1C(F)(F)F  10.6%
29. O=C(O)CSCC(=O)Nc1ccccc1SCCS(=O)(=O)c1ccc(Cl)cc1  10.6%
30. CC(c1ccccc1)N1C(=O)c2ccc(C(=O)Nc3ccccc3C(=O)O)cc2C1=O (centres unmarked)  10.5%
31. Cc1ccc(/C=N/n2c(COc3ccccc3)n[nH]c2=S)o1  10.5%
32. CCCCN(CC)CCCNC(=O)CC1Nc2ccccc2NC1=O (centres unmarked)  10.2%
33. COc1ccc(S(=O)(=O)n2nc(OC(=O)C3CCCCC3)cc2N)cc1  9.89%
34. COc1ccccc1NCC(=O)N/N=C/c1c(O)ccc2ccccc12  9.84%
35. CSc1ccccc1NC(=O)c1ccccc1C  9.76%
36. CO.Cc1ccc(C2=NCN(c3ccc(C(=O)O)cc3)C(=S)N2)cc1  9.74%
37. Cc1ccc(OCc2ccc(C(=O)N3CCOCC3)cc2)cc1C  9.53%
38. Cc1ccccc1C(=O)NC(=S)Nc1ccc(S(=O)(=O)N(C)c2ccccc2)cc1  9.49%
39. CC(=O)Nc1ccc(S(=O)(=O)NCCCN2CCOCC2)cc1  9.38%
40. Cc1onc(-c2c(Cl)cccc2Cl)c1/C(N)=N/OC(=O)N(C)C  9.36%
41. O=C(Nc1ccc(-c2nc3cccnc3s2)cc1)C1CCCO1 (centres unmarked)  8.87%
42. Cc1ccc(NS(=O)(=O)c2ccc3c(c2)NC(=O)CCS3)c(C)c1  8.87%
43. Cc1ccccc1CNC(=O)C1CCC(=O)N(CC2CCCCC2)C1 (centres unmarked)  8.58%
44. COc1ccc(NP(=O)(Oc2ccccc2OC)Oc2ccccc2OC)cc1  8.46%
45. Cc1cc(N)n2nc(C)c(-c3ccc(Cl)cc3)c2n1  8.12%
46. Cc1cc(Cl)ccc1Oc1nc(-c2ccccc2)ncc1S(C)(=O)=O  8.04%
47. CCCCNS(=O)(=O)c1ccc2nc(-c3cccnc3)cc(C(=O)NC3CCCC3)c2c1  7.8%
48. CC1CCCC(C)N1C(=O)CSc1nc(N)c(-c2ccccc2)c(=O)[nH]1 (centres unmarked)  7.78%
49. Cc1ccc(C2(C)NC(=O)N(CC(=O)c3ccc(Cl)s3)C2=O)cc1 (centres unmarked)  7.69%
50. CCN1CCN(Cc2ccc(C(=O)Nc3ccc(C)c(NCc4cnc(NC(=O)OC)cn4)c3)cc2C(F)(F)F)CC1  7.56%
51. CCOC(=O)Cn1nc(-c2ccccc2)c2ccccc2c1=O  7.25%
52. O=C(Nc1nnc(SCC(=O)N2CCCc3ccccc32)s1)c1ccc2ccccc2c1  6.91%
53. CCCCn1c(N)c(N(CC(C)C)C(=O)c2cc(C)nc3ccccc23)c(=O)[nH]c1=O  6.52%
54. CC(C)CN1C(=O)c2ccc(C(=O)NCc3ccccn3)cc2C1=O  6.44%
55. C=CCNC(=O)C1CCC(C(=O)NCC=C)CC1 (centres unmarked)  6.42%
56. CCNC(=S)NNC(=O)C1CCN(Cc2ccccc2)CC1  6.22%
57. COc1n[nH]c(C(=O)NCc2ccccc2)c1[N+](=O)[O-]  5.38%
58. Cc1cccc(N2CCN(C(=O)/C=C/c3ccco3)CC2)c1C  5.29%
59. COc1cc(C(=O)Sc2ccc(C)cc2)cc(OC)c1OC  4.96%
60. O=C(CSc1ncccc1C(=O)O)c1ccc2ccccc2c1  4.69%
61. Cc1nn(C)c(C)c1NC(=O)CSc1nc(C2CC2)nc2c1cnn2-c1ccccc1  4.22%
62. CSCC[C@H](NC(=O)OC(C)(C)C)C(=O)N1CCC(C(=O)N[C@@H](C)C(=O)NCc2ccc(F)cc2)CC1  4.14%
63. COc1ccc(NCC(=O)N/N=C2\CCc3ccccc32)cc1  4.02%
64. COc1ccc(-n2c(=O)c3ccccc3n(CC(=O)c3ccccc3)c2=O)cc1OC  3.96%
65. O=C(CN1CCN(c2ccccn2)CC1)Nc1ccccc1F  3.67%
66. Cc1cccc(NC(=O)c2cccc(OC(=S)N3CCOCC3)c2)c1  3.19%
67. O=C(CCc1ccc(S(=O)(=O)N2CCOCC2)cc1)N1CCCC1  2.89%
68. Cc1ccsc1C(=O)NNC(=O)C1C2C=CC(C2)C1C(=O)O (centres unmarked)  2.82%
69. COc1ccc(-c2cc(-c3ccc(OC)c(OC)c3)n[nH]2)c(O)c1  2.35%
70. Cc1c(CCC(=O)NCCCn2ccnc2)c(=O)oc2c(C)c3oc4c(c3cc12)CCCC4  2.02%
71. COc1cc(CNCCc2ccccc2)ccc1OCC(N)=O.Cl  1.92%
72. O=C(CC(=O)NN=C1CCCC1)NCCc1ccccc1  1.75%
73. O=c1c(-c2nnc(SCc3ccc(Cl)cc3Cl)o2)cccn1Cc1ccccc1  1.05%
74. O=C(c1ccc(Br)o1)N1CCN(c2ccccn2)CC1  0.932%
75. CC(C)(C)Nc1nc(C(N)=O)nc(N2CCOCC2)n1  0.837%
76. CC(=O)c1cc(C#N)c(SCC(=O)O)nc1C  0.462%
77. CCCN(CC1CC1)C(=S)Nc1ccc(C(C)=O)cc1  -0.0968%
78. CNC(=O)C1CCN(S(=O)(=O)c2c(C)noc2/C=C/N(C)C)CC1  -0.512%
79. N/C(=N\OC(=O)CSc1ccccc1)c1cccc([N+](=O)[O-])c1  -1.28%
80. COc1cccc(OCCNc2ccc([N+](=O)[O-])cn2)c1  -1.47%
81. O=S(=O)(Cc1ccccc1)N1CCCc2ccccc21  -1.53%
82. C=CCn1c(O)c(C(C)=Nc2ccc(C(=O)OCC)cc2)c(=O)[nH]c1=O  -1.64%
83. Cc1ccc(CNC(=O)C(Cc2ccccc2)NS(=O)(=O)c2ccc3c(c2)CCC(=O)N3)cc1 (centres unmarked)  -2.53%
84. Cc1ccccc1NC(=S)N(C)Cc1cccs1  -4.48%
85. CCN(CCn1cccn1)C(=O)CCc1nnc(CCc2ccccc2OC)o1  -5.16%
86. Cc1cc(C(=O)Nc2c(C)nn(Cc3ccc(Cl)cc3)c2C)no1  -7.24%
87. CC(C)CCn1c(=O)c2c(nc3n2CCCN3Cc2ccccc2)n(C)c1=O  -10.9%
88. CSc1ccc(S(=O)(=O)NC2CCCCC2)cc1  -11.8%
89. CC(=O)c1ccc(N2CCN(S(=O)(=O)c3csc(C(N)=O)c3)CC2)cc1  -14.2%

Reference: publication PMC4336329 (PLoS ONE, 2015)
